Tests used:
CD122-Fc [1] = biological target: CD122-Fc (UniProt P14784); assay: SPR, construct immobilised by amine coupling, CD122-Fc flowed, 25 C
CD122-Fc [2] = biological target: CD122-Fc (UniProt P14784); assay: SPR, construct immobilised, CD122-Fc flowed (row repeats r10)

Chain of UniProt P14784 (P14784 27-239 limits assumed): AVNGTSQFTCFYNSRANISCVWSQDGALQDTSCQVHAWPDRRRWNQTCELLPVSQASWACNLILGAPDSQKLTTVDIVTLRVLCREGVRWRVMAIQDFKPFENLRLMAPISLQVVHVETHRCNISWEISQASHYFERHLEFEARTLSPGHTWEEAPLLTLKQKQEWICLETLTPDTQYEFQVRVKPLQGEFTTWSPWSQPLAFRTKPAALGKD

B1: AK035 (Fc fusion, from a related filing)
chain: [human IgG1 Fc with changes left out here]PTSSSTKKTQLQLEHLLLDLQMILNGINNYKNPKLTAMLTAKFAMPKKATELKHLQCLEEALKPLEEVLNLAQSKNFHLRPRDLISNINVIVLELKGSETTFMCEYADETATIVEFLNRWITFAQSIISTLT
Binder B1 has a Kd (CD122-Fc [1]) of 110 nM and a Kd (CD122-Fc [2]) of 110 nM.

— US20230159603A1
